# Laboratory results as given in the supplement of paper PMC3334620.
# Over roughly 33,000 sequences, “E-score (-0.5 to 0.5)” has its median near -0.043; the highest 2% begin near 0.37. This is one part of the list.
# Molecular target: T1, Upc2 (UniProt Q12151)
# T1 sequence: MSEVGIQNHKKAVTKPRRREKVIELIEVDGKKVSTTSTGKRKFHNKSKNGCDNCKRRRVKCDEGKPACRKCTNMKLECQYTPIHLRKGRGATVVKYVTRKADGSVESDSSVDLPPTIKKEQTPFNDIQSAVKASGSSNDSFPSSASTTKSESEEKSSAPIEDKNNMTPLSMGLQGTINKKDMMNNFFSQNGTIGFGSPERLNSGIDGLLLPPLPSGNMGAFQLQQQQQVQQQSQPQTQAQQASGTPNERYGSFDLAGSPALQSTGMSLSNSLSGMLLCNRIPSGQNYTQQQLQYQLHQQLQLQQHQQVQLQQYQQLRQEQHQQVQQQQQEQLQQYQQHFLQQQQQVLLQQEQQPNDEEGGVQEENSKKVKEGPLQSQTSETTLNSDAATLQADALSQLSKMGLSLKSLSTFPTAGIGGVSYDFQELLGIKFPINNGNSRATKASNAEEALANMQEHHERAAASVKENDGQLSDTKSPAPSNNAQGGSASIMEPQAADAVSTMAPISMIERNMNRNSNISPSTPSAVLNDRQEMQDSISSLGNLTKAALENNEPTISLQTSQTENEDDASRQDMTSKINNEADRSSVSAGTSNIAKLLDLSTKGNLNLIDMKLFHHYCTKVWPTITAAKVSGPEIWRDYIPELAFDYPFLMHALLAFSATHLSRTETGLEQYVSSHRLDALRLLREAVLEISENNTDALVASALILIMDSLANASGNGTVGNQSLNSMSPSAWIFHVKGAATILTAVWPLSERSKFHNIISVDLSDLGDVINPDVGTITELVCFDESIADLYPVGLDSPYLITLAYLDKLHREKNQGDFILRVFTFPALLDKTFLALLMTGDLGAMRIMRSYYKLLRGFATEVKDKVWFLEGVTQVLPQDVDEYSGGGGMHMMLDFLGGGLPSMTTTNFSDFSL
# Test: PBM E-score (8-mer binding enrichment) (E-score (-0.5 to 0.5)); higher = stronger / more preferred TF binding; most listed sequences are background and not binding sites
# Conditions: protein concentration: 200 nM; construct: GST-full length
# Method in brief: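 Full-length yeast transcription factors or their DNA-binding domains, GST-tagged and expressed with PURExpress, were applied at about 100-200 nM to universal all-10-mer Agilent arrays. These arrays had been made double-stranded by primer extension on fresh or once-stripped slides. Detection used fluorescent anti-GST, normalisation used masliner, and E-scores for ungapped eight-base words pooled with reverse complements came from the Universal PBM Analysis Suite.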
row,Sequence,PBM E-score
1,CCCTTTTC,-0.0146
2,AGAATCCC,0.11
3,CTCGGGGC,-0.168
4,GGGCAAAA,-0.0612
5,ACGGGCAT,0.28
6,GAACGCTA,-0.0474
7,GCAGGGAC,-0.165
8,GCTAGAGC,-0.141
9,GTATAGCA,0.377
10,CCTTCCAA,-0.216
11,CATAGGCG,-0.075
12,TACACCTA,0.0945
13,ACGCGGTA,0.142
14,GTTCAGTA,0.249
15,GCATATAC,0.251
16,CCGGTGCC,-0.0464
17,ACCTAGCC,-0.17
18,AGGCTGTG,-0.00172
19,ATGCCATC,0.066
20,AACCCGGA,-0.00233
21,AAAGATTT,-0.0111
22,CATTCGCC,-0.147

row,Sequence,PBM E-score
1,CGTTATCC,0.0197
2,CAACTCTG,-0.0835
3,AACAGACC,0.0367
4,CTCGGATC,0.141
5,CCTGACCG,0.08
6,CGCGTAAC,0.202
7,ATTAAAGC,-0.0686
8,TCACTCCA,-0.0952
9,CAGCGCTC,-0.201
10,CGGTCAGA,-0.126
11,CTTCGCGA,0.161
12,AAAAGGGT,-0.105
13,TCGGATAA,0.336
14,TCTTATAA,0.301
15,ATCGCCGA,0.0596
16,AGTCCCCA,-0.289
17,ATCAGCCA,-0.122
18,TACGGGGA,0.36
19,AGGCCATC,-0.0459
20,AGCAGTTC,-0.0967
21,AAATGGAC,-0.0861
22,TCAGGTAA,-0.24

row,Sequence,PBM E-score
1,CGTTATAA,0.164
2,GTACGGAA,0.377
3,AGACTGTG,-0.152
4,ATATCCGC,0.175
5,AGTTGTTC,0.127
6,CAAAAAGG,-0.0817
7,CTAATGTC,-0.171
8,TACCCGTA,0.339
9,CTCCTACC,-0.241
10,ATATCGGA,-0.00291
11,CAGCCTGG,-0.215
12,ACCCCCCC,-0.312
13,ACCCCGGC,-0.191
14,CTCAAGTA,-0.132
15,AGGCCAGC,-0.0204
16,GATAACGC,-0.0237
17,CAGATACA,0.0349
18,CGATAACG,0.164
19,ACCAAAAT,0.00073
20,CATGCATC,-0.119
21,CGCTGCCA,-0.1
22,GTCTTTGA,-0.0423

row,Sequence,PBM E-score
1,CCACGATC,0.125
2,ACGTTTAT,0.313
3,AGCAGACG,-0.171
4,TAGGTACA,-0.114
5,CAACATCA,-0.0677
6,CCTGCGGA,-0.0982
7,GGGGGTAA,-0.285
8,AAGTTAGT,-0.0401
9,ACAGGGTA,0.0435
10,GGGGGGGA,-0.32
11,AAGTAACG,0.19
12,GATGAGGA,-0.0777
13,GGATTGAA,-0.0284
14,AGGCGTTC,-0.0195
15,ATTCGAGC,0.124
16,GTATGAAA,0.272
17,TATAGACA,0.115
18,CCCCTGCC,-0.17
19,AACAGGGT,-0.187
20,GAATACGA,0.439
21,TCACATGA,-0.249
22,GGGGACAA,-0.0146

row,Sequence,PBM E-score
1,CACGAGTA,0.126
2,AACTACTG,-0.159
3,ATGGATAG,-0.0756
4,AGTTGCGC,-0.0195
5,ATAGACAA,0.0543
6,ACAACTCA,-0.185
7,CCAGACGG,-0.313
8,CGATGCCC,0.0631
9,ATTGGAGA,-0.0484
10,CGGTGCGA,0.181
11,AATTGGAA,-0.165
12,AATCACCG,0.00219
13,AATAGGAA,-0.0836
14,TGCCGAAA,-0.00788
15,CCGCTATA,0.0813
16,AATTCGAT,0.0574
17,GTACTCAA,-0.0704
18,ACGTGGGA,0.00481
19,AGGCTATC,0.11
20,AGAGGTTA,-0.143
21,AGTATAAG,0.261
